Over roughly 81,000 sequences, “one-hybrid fitness for binding parS DNA” has its median near -0.17; the highest 2% begin near 0.51. This is one part of the list.
B1: Caulobacter ParB omega fusion; a variant is named by its letters at X, in order, B8GW30 (parent)
chain: MESVVVGEPGMSEGRRGLGRGLSALLGEVDAAPAQAPGEQLGGSREAPIEILQRNPDQPRRTFREEDLEDLSNSIREKGVLQPILVRPSPDTAGEYQIVAGERAWRAAQRAGLKTVPIMVRELDDLAVLEIGIIENVQRADLNVLEEALSYKVLMEKFERTQENIAQTIGKSXSHVANXMRLLXLPDEVQSYLVSGELTAXHARAIAAAADPVALAKQIIEGGLSVRETEALARKAPNLSAGKSKGGRPPRVKDTDTQALESDLSSVLGLDVSIDHRGSTGTLTITYATLEQLDDLCNRLTRGI

Variants of: B1
Assay: one-hybrid fitness for binding parS DNA (scaled: cognate 1, non-cognate 0); higher = stronger binding
Details: with parS DNA site
In short: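 Values were rescaled so that cognate is 1 and non-cognate is 0. Each is a fitness, the log change in a variant's read ratio to wild type from Illumina reads of plasmids before and after selection, with three replicate libraries pooled and variants under 10 reads dropped. Selection of the Caulobacter ParB libraries, four specificity codons randomised, used E. coli USO with a HIS3 reporter, site 19 bp from the promoter, on M9-minus-histidine with 0.1 mM IPTG and 5 mM 3-AT for 48 hours at 37°C.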

| Variant | one-hybrid fitness for binding parS DNA |
| --- | --- |
| PLTV | ≤ 0.2 |
| NPDT | ≤ 0.2 |
| PHGN | ≤ 0.2 |
| TERT | ≤ 0.2 |
| HISV | ≤ 0.2 |
| IMRR | ≤ 0.2 |
| HTVE | ≤ 0.2 |
| RLFT | 0.838 |
| TVQT | ≤ 0.2 |
| CRRN | ≤ 0.2 |
| DFSR | ≤ 0.2 |
| REDT | ≤ 0.2 |
| TFGT | ≤ 0.2 |
| DHGV | ≤ 0.2 |
| YTFY | ≤ 0.2 |
| IDSN | ≤ 0.2 |
| RTTC | 0.991 |
| TNKF | ≤ 0.2 |
| CSCR | ≤ 0.2 |
| TPHW | ≤ 0.2 |
| RVDY | 0.427 |

| Variant | one-hybrid fitness for binding parS DNA |
| --- | --- |
| VLSM | ≤ 0.2 |
| LYPI | ≤ 0.2 |
| TNHP | ≤ 0.2 |
| MRHT | ≤ 0.2 |
| NNTE | ≤ 0.2 |
| RRLH | ≤ 0.2 |
| YPAS | ≤ 0.2 |
| HNIG | ≤ 0.2 |
| PCLW | ≤ 0.2 |
| TMTI | ≤ 0.2 |
| WMNG | ≤ 0.2 |
| DKHG | ≤ 0.2 |
| FLKS | ≤ 0.2 |
| LPSD | ≤ 0.2 |
| CNRR | ≤ 0.2 |
| SLTM | ≤ 0.2 |
| PDHD | ≤ 0.2 |
| KNCI | ≤ 0.2 |
| WVER | ≤ 0.2 |
| WPAG | ≤ 0.2 |
| MVNR | ≤ 0.2 |

| Variant | one-hybrid fitness for binding parS DNA |
| --- | --- |
| RSHM | 0.324 |
| NGLE | ≤ 0.2 |
| HALS | ≤ 0.2 |
| WCTM | ≤ 0.2 |
| TSTI | ≤ 0.2 |
| SRLN | ≤ 0.2 |
| PSTF | ≤ 0.2 |
| MKKL | ≤ 0.2 |
| DPAC | ≤ 0.2 |
| TNER | ≤ 0.2 |
| LQNC | ≤ 0.2 |
| EHVS | ≤ 0.2 |
| LYYG | ≤ 0.2 |
| SLPL | ≤ 0.2 |
| RQIH | ≤ 0.2 |
| LEIR | ≤ 0.2 |
| IGAG | ≤ 0.2 |
| PKMC | ≤ 0.2 |
| CFDG | ≤ 0.2 |
| PESL | ≤ 0.2 |
| RWEW | ≤ 0.2 |

| Variant | one-hybrid fitness for binding parS DNA |
| --- | --- |
| RYCF | ≤ 0.2 |
| IRSV | ≤ 0.2 |
| LYQS | ≤ 0.2 |
| ILAI | ≤ 0.2 |
| GIPT | ≤ 0.2 |
| RQIF | ≤ 0.2 |
| KETM | ≤ 0.2 |
| QFKV | ≤ 0.2 |
| TAML | ≤ 0.2 |
| ENQG | ≤ 0.2 |
| VPGG | ≤ 0.2 |
| EMTR | ≤ 0.2 |
| ATTT | ≤ 0.2 |
| FKMG | ≤ 0.2 |
| SDNC | ≤ 0.2 |
| MALC | ≤ 0.2 |
| MHTL | ≤ 0.2 |
| VMPE | ≤ 0.2 |
| ADRH | ≤ 0.2 |
| QKRQ | ≤ 0.2 |
| DEQS | ≤ 0.2 |

— a collection of fitness landscapes (doi:10.1016/j.celrep.2020.107928)
